Data on one molecule can be found in patent publication US20020150582A1, “Method of treating or inhibiting cellular injury or cell death” (priority 2001, published 2002).

SMILES strings stand for the structures.

The test system of the experiment is isolated feline ventricular myocytes. Kind of experiment: Action potential recording in isolated ventricular myocytes (patch clamp). In kind it is cell-based, cat. The settings on record: n=4. On the procedure: The latter process was performed three times.
Patch-clamp current and voltage recordings were made with the ruptured patch whole-cell configuration at 36-37° C. (14). For studies on L-type Ca^2+ currents, cells were bathed with modified Tyrode's containing (in mM): 157 TEA-Cl, 5 CaCl2, 0.5 MgCl2, and 10 HEPES. Electrode internal solution contained (in mM): 10 L-Glutamic Acid, 20 CsCl, 10 EGTA, 1 MgCl2, 1 CaCl2, 20 HEPES, and 5 ATP-Mg2; pH adjusted with CsOH. In all of the studies, electrode resistance was measured to be 2-3.5 MΩ. The reference zero potential was adjusted in the bath before forming seals. Recordings were performed with an Axon Instruments 200B amplifier (Axon Instruments, Culver City, Calif. USA) interfacing a DigiData 1200 DA/AD acquisition system. Ionic currents were evoked by depolarizing voltage step (1 sec-long) from −30 to +60 mV, in 10-mV increments, from a holding potential of −40 mV delivered at the frequency of 1 Hz. Action potentials were elicited at a frequency of 1 Hz by injection of brief depolarizing current pulses. Software used in data acquisition and analysis was pClamp v.6.04 and Origin v 5.0 (Microcal Software, Northampton, Mass.).
In general terms: The patch-clamp technique gives a direct electrical read-out from membranes.

As for `CCCCCCCCCCCCC/C=C/[C@@H](O)[C@@H](N)CO` [Sphingosine], the “reduction of duration at 95% of full repolarization (APD95)” value came to 16±2% (0.25 μM), 28±2% (2.5 μM) and 39±2% (25 μM).
